# ± gives the standard deviation of the averaged measurements. This is one part of the list.
# Test system: PfAP2-G AP2 domain (GST-tagged)
# Assay: gcPBM binding intensity (ln(normalized median fluorescence intensity)); higher = stronger DNA binding
# Procedure, shortened: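 Plasmodium falciparum DNA-binding domains carrying a GST tag were expressed in E. coli and applied for 1 h, at about 25 μg on average, to an Agilent 4 × 180k array. The array held primer-extended double-stranded 36-bp intergenic genomic probes together with negative controls, and binding took place in 1× PBS with 1% milk, 0.2 mg/ml BSA, 0.5% salmon testes DNA and 0.03% Triton X-100. An Alexa488 anti-GST antibody detected bound protein, and the array was scanned at 488 nm. Binding intensity is taken as the highest Masliner-normalised natural-log median intensity across replicate spots of either probe orientation.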
row,Sequence,gcPBM binding intensity (ln)
1,CCATTATATCTAAGTACACACATTAATTTTTTTTTT [CACACA_site6115],11.5 ± 0.98
2,AGAAATTAATCGAGGTGTACGTACATCCAAATATAT [XGTACX_site7650],11.8 ± 1.2
3,ATATATTTAACAAGATGTACAATTTTATAAAAAATA [XGTACX_site2351],11 ± 0.62
4,TGAAAAGGAAATTGTTGTACATATGTTTCTTCCTAA [XGTACX_site3932],11.2 ± 0.8
5,AATAGCAATTTGGGGTGTACACACACCTTATTTAAA [XGTACX_site2234],11.5 ± 0.95
6,AAAATATATATAAATGCATGCATAATGAAATATATA [TGCATGCA_site39],9.66 ± 0.14
7,TTTTAAAAAACAAACACACACGTAGAAAAAAAAAAA [CACACA_site4608],10.1 ± 0.24
8,CTGTATAAAACCAATGCATGTAAATATATTAATATA [TGCATGCA_site511],9.93 ± 0.042
9,GAAATTTTATTTCGGCGGACAAATGTATACTTTCTT [XGTACX_site4238],11.2 ± 0.73
10,GATTATTATGTCCATGCATGTTAATATATATTAATT [TGCATGCA_site837],10.6 ± 0.39
11,AAATTGGGGCTTGTTACACACTTAGTGCGAGTTCTA [CACACA_site582],10.3 ± 0.26
12,GAGAAGACATTACACAGTACCCAGTAACTCTACGGA [XGTACX_site2000],10.6 ± 0.32
13,TATGCGTATATATAAATACACACCAAATGTTAATAT [CACACA_site1713],10.2 ± 0.21
14,ATATATTATTATAACTGTACTTTTTTTGTGGTTAAT [XGTACX_site8266],11.5 ± 0.83
15,TATGGATGTATTCATACATGCACACGTACATATTTA [TGCATGCA_site991],11.3 ± 0.86
16,ATAATTTGATGGTTAACACACATATATATTATATAT [CACACA_site2449],10.2 ± 0.16
17,ATATAAATATAAATATATATGTATAAATATAAATAT [CACACA_negctrl_site247],9.565 ± 0.064
18,CCATTTACATTGTGAAGTACTAAAAAAAAATGTAGA [XGTACX_site7882],11.1 ± 0.61
19,ACAAGGAATATAAAAAGTACATAAAATACATAAAAA [XGTACX_site1217],11.3 ± 0.64
20,ATTTATTTTAATAATTGTACATGTTATTTTATATAT [XGTACX_site2667],10.9 ± 0.57
21,TACTTTTCATCTTCTTAACACACAAAAAAAAAAAAA [CACACA_site9290],10.1 ± 0.52
22,TATATATATATATATACACACAAAAAAATAAATTCT [CACACA_site98],10.1 ± 0.32

row,Sequence,gcPBM binding intensity (ln)
1,ATCATTTTTAAAGGAACACACAAAAAAAGTTATAAT [CACACA_site6761],10.17 ± 0.099
2,TTTATATTATTAGAAACACACATTAGATTAAAATTA [CACACA_site3286],9.86 ± 0.14
3,TATATATATATGTGCACACCAATTGTATGTAATATA [CACACA_site3889],10.6 ± 0.38
4,TATTTAATTACATGAACACACATTATATATTTTTAA [CACACA_site5615],9.85 ± 0.014
5,ACTACATAATATTAACGTACATATTATAATACTTGC [XGTACX_site954],11.3 ± 0.81
6,ATATAACACATTAGTTGTACTATTTTTAATTGGTGA [XGTACX_site961],11.3 ± 0.88
7,ACATAATAAAAATGACGTACAATTTTTTTTTTTCAT [XGTACX_site8340],11.4 ± 0.91
8,CATTAAAAAGAAAGTTCACACACATATATATGACGG [CACACA_site8836],10.19 ± 0.099
9,TACATAATAACATGTACACACATTCTTCTATAAATG [CACACA_site4061],11.4 ± 0.83
10,ATATATTATATTGAATGTACATATATATATTATATA [XGTACX_site8445],11 ± 0.59
11,GTTAATATCTTGAACAGTACTCTAAATATCTACATA [XGTACX_site5358],10.9 ± 0.51
12,ATGAATAATTAATGATGTACTTAAAAAAAAAAATAT [XGTACX_site6346],11.3 ± 0.72
13,AAAAAAAAAAAAAAAAAAAAAAAAAAAAAAACATAT [GTGCAC_negctrl_site580],11.2 ± 0.67
14,TAGCCCATATGGAATACACACTGAAAATAAAAAAAG [CACACA_site5799],10.3 ± 0.32
15,TTACAATAAATTATAGTGCAATATTTTATTTAATAT,9.9 ± 0.26
16,TGCTATAATTTATATACACACAAATATATACACATA [CACACA_site9356],10.02 ± 0.064
17,GATAATAATAAACAACCACACACAAAAAAACAAAAA [CACACA_site9074],10.2 ± 0.28
18,ATAAAAAAACACACTCGTACACACATATTTTCTTTC [XGTACX_site6565],11.2 ± 0.59
19,CAATGTTGTACATACACACACACAAAAAAAAAATAA [CACACA_site2407],11.3 ± 0.97
20,TTCAAATTTCCACATACACACCTTGTAGATCTATAT [CACACA_site6270],10.1 ± 0.11
21,ACAACATATGTTATCACACACATATAAATATAAATA [CACACA_site7038],9.99 ± 0.11
22,ATTTTGATGATGTATGCACACATTGAAAATGAGAAA [CACACA_site2916],10.2 ± 0.19

# Source: the supplement of paper PMC11417369
